In all, about 220,000 compounds went through this assay and about 16,000 (7.3%) were called active. This list was built around the results that the source calls inconclusive (neither active nor inactive); the mix of calls is not that of the screen. Calls follow the shape of the dose curve; as a rule, active = well fitted inhibition curve with a large enough effect (not every such curve was filed as active); inconclusive = small, poorly fitted or top-dose-only effect, or another doubt; inactive = no such curve, though single readings can be large or run the other way. No potency is given beside an inconclusive call; the fits are too rough.
Molecular target: Aldehyde dehydrogenase 1A1 (Homo sapiens) (UniProt P00352)
Experiment: qHTS Assay for Inhibitors of Aldehyde Dehydrogenase 1 (ALDH1A1)
Conditions: Purified ALDH1A1, NADH fluorescence, propionaldehyde substrate; series mostly up to 75.3 µM
Potency is read from the fitted curve at half-maximal effect; tags tell the direction and shape of the fitted curve.

Chain of UniProt P00352 (P00352 whole entry, looked up): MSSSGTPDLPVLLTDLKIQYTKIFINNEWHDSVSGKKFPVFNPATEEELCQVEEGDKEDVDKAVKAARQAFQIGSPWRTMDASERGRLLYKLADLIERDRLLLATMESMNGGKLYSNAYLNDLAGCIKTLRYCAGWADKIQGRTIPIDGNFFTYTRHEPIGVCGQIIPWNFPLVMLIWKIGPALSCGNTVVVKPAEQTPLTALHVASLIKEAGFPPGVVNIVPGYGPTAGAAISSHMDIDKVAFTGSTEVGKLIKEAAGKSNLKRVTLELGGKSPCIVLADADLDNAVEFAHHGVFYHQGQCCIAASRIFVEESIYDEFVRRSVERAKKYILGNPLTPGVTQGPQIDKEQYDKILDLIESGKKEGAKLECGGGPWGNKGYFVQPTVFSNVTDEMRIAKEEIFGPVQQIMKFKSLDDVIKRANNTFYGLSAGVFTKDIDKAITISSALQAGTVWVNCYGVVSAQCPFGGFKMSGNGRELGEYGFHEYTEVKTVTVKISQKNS

For Cc1cc(=O)oc2cc(OCc3cc4c(cc3Cl)OCO4)ccc12, which Potency is on record?
Its Potency is inconclusive [inhibitor, partial curve].

With CCCNC(=O)c1noc2c1CCc1cc(OC)ccc1-2 as the molecule, how does the Potency read?
Its Potency is inconclusive [inhibitor, single point].

How did the Potency turn out when CCSc1nnc(NC(=O)CSC2=NCCS2)s1 was run?
The Potency was inconclusive [inhibitor, single point].

With Cc1ccc([N+](=O)[O-])cc1N/C=C1\CCCCC1=O as the molecule, how does the Potency read?
The Potency was inconclusive [inhibitor, partial curve].

How did the Potency turn out when CCOC(=O)CC(c1ccc(N)cc1)n1c(C)ccc1C (stereo not given) was run?
The Potency was inconclusive [inhibitor, single point].

For Cc1cc(=O)[nH]c(SCC(=O)Nc2ccc(S(N)(=O)=O)cc2)n1, which Potency is on record?
Its Potency is inconclusive [inhibitor, single point].

How did the Potency turn out when Fc1ccc(NCc2cn3ccccc3n2)cc1 was run?
The Potency was inconclusive [inhibitor, single point].

How did the Potency turn out when CN1CCN(/N=C/c2ccc(Cl)c(Cl)c2)CC1 was run?
Its Potency is “inactive”.

How did the Potency turn out when CCCOc1cccc(C(=O)NC(=S)Nc2ccc(N3CCN(C)CC3)cc2)c1 was run?
The Potency was inconclusive [inhibitor, single point].

CCCCC(=O)NCCc1cc2c(OC)ccc(OC)c2[nH]c1=O was tested. Which Potency did it give?
The Potency was “inactive”.

With C=CCNC(=O)c1ccc(Cn2cc(C(F)(F)F)ccc2=O)cc1 as the molecule, how does the Potency read?
Its Potency is “inactive”.

For Cc1cc2nnc(SCC(=O)N3CCOCC3)n2c2ccccc12, which Potency is on record?
The Potency was inconclusive [inhibitor, single point].

How did the Potency turn out when Cc1ccc(-c2cc(C(=O)NCc3ccccn3)c3ccccc3n2)cc1 was run?
Its Potency is inconclusive [inhibitor, partial curve].

Cc1onc(-c2c(F)cccc2Cl)c1C(=O)OCC(=O)NC(c1ccccc1)c1ccccc1 was tested. Which Potency did it give?
Its Potency is inconclusive [inhibitor, single point].

O=C(NCC1CCCO1)c1cncc(Br)c1 (stereo not given) was tested. Which Potency did it give?
The Potency was “inactive”.

CN(CCc1ccccn1)Cc1ccc(Cl)cc1Cl was tested. Which Potency did it give?
The Potency was “inactive”.

How did the Potency turn out when COc1cc(NC(=S)N2CCN(c3ccccn3)CC2)cc(OC)c1OC was run?
Its Potency is inconclusive [inhibitor, single point].

How did the Potency turn out when Cc1sc2nc(SCC(=O)NCCO)n(C)c(=O)c2c1C was run?
The Potency was “inactive”.

With CC(=O)C1=C(O)C(=O)N(C)C1c1ccccc1F (stereo not given) as the molecule, how does the Potency read?
Its Potency is inconclusive [inhibitor, single point].

With CCOC(=O)c1sc2cc([N+](=O)[O-])cc(SCC(=O)OC)c2c1N as the molecule, how does the Potency read?
Its Potency is inconclusive [inhibitor, partial curve, poor fit].

For C=CCOc1ccc(C2CC(C)=NN2c2ccccc2)cc1 (stereo not given), which Potency is on record?
Its Potency is “inactive”.

For CN(C)c1ncnc2ccc(-c3ccccc3C#N)cc12, which Potency is on record?
The Potency was inconclusive [inhibitor, partial curve].

How did the Potency turn out when CC1(O)CC2C(CC1O)C2(C)C (stereo not given) was run?
The Potency was “inactive”.

Which Potency does the source give for O=C(CCc1ccccc1)NCCC1=CCCCC1 here?
The Potency was “inactive”.

With CCCS(=O)(=O)c1nc(S(=O)(=O)c2ccc(C)cc2)c(N2CCc3ccccc3C2)s1 as the molecule, how does the Potency read?
Its Potency is active: 1.41 µM.

For COc1ccc(C2Nc3ccccc3C(=O)N2NS(=O)(=O)c2ccc(C)cc2)cc1 (stereo not given), which Potency is on record?
Its Potency is inconclusive [inhibitor, single point].

Cc1ccc(C)c(N2CCN(C(=O)CCS(=O)(=O)c3cccc4nonc34)CC2)c1 was tested. Which Potency did it give?
Its Potency is inconclusive [inhibitor, single point].

O=c1cc(-c2ccccc2)nc(N2CCCCC2)[nH]1 was tested. Which Potency did it give?
Its Potency is “inactive”.

Which Potency does the source give for CCN1C(=O)c2cccc3c(S(=O)(=O)NCc4cccnc4)ccc1c23 here?
The Potency was inconclusive [inhibitor, partial curve].

Which Potency does the source give for Cc1cc(C)c(NC(=O)CN2CCN3CCCC3C2)c(C)c1 (stereo not given) here?
Its Potency is “inactive”.

With CCOC(=O)c1sc(=S)n2c1[nH]c(=O)c1ccc(C(=O)OC)cc12 as the molecule, how does the Potency read?
Its Potency is active: 8.91 µM.

Which Potency does the source give for CN(C)S(=O)(=O)c1ccc2c(c1)c(=O)c(C(=O)NCCCN1CCCCCC1)cn2C here?
Its Potency is active: 15 µM.

With CCn1c(O)c(N=NC(=O)Cc2csc(N3CCOCC3)n2)c2ccccc21 as the molecule, how does the Potency read?
Its Potency is inconclusive [inhibitor, partial curve].

For Cc1cc2oc(C(=O)NCc3ccncc3)c(C)c2cc1C, which Potency is on record?
Its Potency is inconclusive [inhibitor, single point].

Which Potency does the source give for CC1(C)OC(=O)C(=Cc2ccc[nH]2)C(=O)O1 here?
The Potency was active: 15.8 µM.

With CC(C)=CCN1CCNC(=O)C1CC(=O)NCc1nc(C)c(C)s1 (stereo not given) as the molecule, how does the Potency read?
The Potency was “inactive”.

For S=c1[nH]nc(-c2ccc3ccccc3n2)n1-c1ccccc1, which Potency is on record?
Its Potency is inconclusive [inhibitor, partial curve].

CN1CCN(c2ncc3ncc(=O)n(-c4ccccc4)c3n2)CC1 was tested. Which Potency did it give?
Its Potency is inconclusive [inhibitor, partial curve].

With N[C@@H](Cc1ccccc1)c1nnc(SCc2ccccc2F)o1 as the molecule, how does the Potency read?
The Potency was inconclusive [inhibitor, single point].

COc1ccccc1C(=O)Nc1ccc(-c2nnc(SCC(=O)O)n2C)cc1 was tested. Which Potency did it give?
The Potency was inconclusive [inhibitor, single point].

For COC(=O)c1nc(-c2ccccc2)oc1N(C)C, which Potency is on record?
Its Potency is inconclusive [inhibitor, partial curve].

Which Potency does the source give for Cc1ccc(-c2noc(C3CCCN(S(=O)(=O)c4ccc5ccccc5c4)C3)n2)o1 (stereo not given) here?
Its Potency is active: 23.8 µM.

With COc1ccc(CNn2c(-c3ccccc3F)nc3ccccc3c2=O)cc1OC as the molecule, how does the Potency read?
Its Potency is “inactive”.

For Cn1c(N)c(C(=O)COC(=O)CNS(=O)(=O)c2cccc(Cl)c2)c(=O)n(C)c1=O, which Potency is on record?
The Potency was inconclusive [inhibitor, single point].

Cc1c(NC(=O)c2cc(-c3cccs3)nc3ccccc23)c(=O)n(-c2ccccc2)n1C was tested. Which Potency did it give?
The Potency was inconclusive [inhibitor, single point].

Which Potency does the source give for CC(C)=CC(=O)Nc1nnc(-c2ccccc2)s1 here?
Its Potency is “inactive”.

CCCCOc1ccc(CC2CCC(=O)NC2=O)cc1 (stereo not given) was tested. Which Potency did it give?
The Potency was “inactive”.

For COC(=O)c1ccc(O)c(Sc2cc(C(=O)OC)ccc2O)c1, which Potency is on record?
The Potency was active: 12.6 µM.

Which Potency does the source give for Cc1cc(SCC(=O)N(C)c2c(N)n(Cc3ccccc3)c(=O)[nH]c2=O)nc2ccccc12 here?
Its Potency is “inactive”.

COc1ccc(N2C(=O)CC(SCC(=O)O)C2=O)cc1 (stereo not given) was tested. Which Potency did it give?
The Potency was inconclusive [inhibitor, single point].

Reference: PubChem BioAssay AID1030 (National Center for Advancing Translational Sciences (NCATS), 2008)
